Assay results reported in a collection of fitness landscapes (doi:10.1016/j.celrep.2020.107928).
The full ranking holds about 81,000 sequences; the median of “one-hybrid fitness for binding NBS DNA” is about -0.1, and the highest 2% start at about 0.36. This is one part of the list.

B1: Caulobacter ParB omega fusion; a variant is named by its letters at X, in order, B8GW30 (parent)
chain: MESVVVGEPGMSEGRRGLGRGLSALLGEVDAAPAQAPGEQLGGSREAPIEILQRNPDQPRRTFREEDLEDLSNSIREKGVLQPILVRPSPDTAGEYQIVAGERAWRAAQRAGLKTVPIMVRELDDLAVLEIGIIENVQRADLNVLEEALSYKVLMEKFERTQENIAQTIGKSXSHVANXMRLLXLPDEVQSYLVSGELTAXHARAIAAAADPVALAKQIIEGGLSVRETEALARKAPNLSAGKSKGGRPPRVKDTDTQALESDLSSVLGLDVSIDHRGSTGTLTITYATLEQLDDLCNRLTRGI

Variants of: B1
Test: one-hybrid fitness for binding NBS DNA (the Noc-binding site; scaled: cognate 1, non-cognate 0); higher = stronger binding
Settings: with NBS DNA site
Summary of the method: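 The reporter was HIS3, with the binding site 19 bp from the promoter, in E. coli USO used for bacterial one-hybrid selection of Caulobacter ParB libraries with four specificity codons randomised. Growth was on M9 lacking histidine, with 0.1 mM IPTG and 5 mM 3-AT, for 48 hours at 37°C. Illumina sequencing covered plasmids before and after selection; three replicate libraries were pooled and variants with under 10 reads dropped. A fitness score is the log change in variant-to-wild-type read ratio, rescaled to the cognate and non-cognate references.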

Compared with GPRI, RKGM is higher in “one-hybrid fitness for binding NBS DNA” value: ≤ 0.2 for the first, 0.218 for the second.

VSVS and TRNL cannot be ordered by “one-hybrid fitness for binding NBS DNA” value: ≤ 0.2 for the first, ≤ 0.2 for the second.

YCMF and SIIA cannot be ordered by “one-hybrid fitness for binding NBS DNA” value: ≤ 0.2 for the first, ≤ 0.2 for the second.

VRDR and WWHS cannot be ordered by “one-hybrid fitness for binding NBS DNA” value: ≤ 0.2 for the first, ≤ 0.2 for the second.

PTFH and VMRA cannot be ordered by “one-hybrid fitness for binding NBS DNA” value: ≤ 0.2 for the first, ≤ 0.2 for the second.

NRSF and LSLI cannot be ordered by “one-hybrid fitness for binding NBS DNA” value: ≤ 0.2 for the first, ≤ 0.2 for the second.

First: QHRC
Second: HNTL
The “one-hybrid fitness for binding NBS DNA” value of the first is higher: 0.344 for the first, ≤ 0.2 for the second.

HLNT and MKRV cannot be ordered by “one-hybrid fitness for binding NBS DNA” value: ≤ 0.2 for the first, ≤ 0.2 for the second.

KTML and YCNR cannot be ordered by “one-hybrid fitness for binding NBS DNA” value: ≤ 0.2 for the first, ≤ 0.2 for the second.

LIVS and SQRY cannot be ordered by “one-hybrid fitness for binding NBS DNA” value: ≤ 0.2 for the first, ≤ 0.2 for the second.

IPWS and MNKC cannot be ordered by “one-hybrid fitness for binding NBS DNA” value: ≤ 0.2 for the first, ≤ 0.2 for the second.

ISQR and ELTQ cannot be ordered by “one-hybrid fitness for binding NBS DNA” value: ≤ 0.2 for the first, ≤ 0.2 for the second.

TCEC and VDTS cannot be ordered by “one-hybrid fitness for binding NBS DNA” value: ≤ 0.2 for the first, ≤ 0.2 for the second.

PSRV and ILLR cannot be ordered by “one-hybrid fitness for binding NBS DNA” value: ≤ 0.2 for the first, ≤ 0.2 for the second.

CAKR and LTRM cannot be ordered by “one-hybrid fitness for binding NBS DNA” value: ≤ 0.2 for the first, ≤ 0.2 for the second.

RPDN and RPLE cannot be ordered by “one-hybrid fitness for binding NBS DNA” value: ≤ 0.2 for the first, ≤ 0.2 for the second.

LKPR and EGPL cannot be ordered by “one-hybrid fitness for binding NBS DNA” value: ≤ 0.2 for the first, ≤ 0.2 for the second.

HLFG and TSHD cannot be ordered by “one-hybrid fitness for binding NBS DNA” value: ≤ 0.2 for the first, ≤ 0.2 for the second.

LRLA and RGPH cannot be ordered by “one-hybrid fitness for binding NBS DNA” value: ≤ 0.2 for the first, ≤ 0.2 for the second.

LSIF and ETRI cannot be ordered by “one-hybrid fitness for binding NBS DNA” value: ≤ 0.2 for the first, ≤ 0.2 for the second.

PEPT and RVHK cannot be ordered by “one-hybrid fitness for binding NBS DNA” value: ≤ 0.2 for the first, ≤ 0.2 for the second.

YATT and DLGS cannot be ordered by “one-hybrid fitness for binding NBS DNA” value: ≤ 0.2 for the first, ≤ 0.2 for the second.

EAKW and LVNC cannot be ordered by “one-hybrid fitness for binding NBS DNA” value: ≤ 0.2 for the first, ≤ 0.2 for the second.

WWAK and ATGR cannot be ordered by “one-hybrid fitness for binding NBS DNA” value: ≤ 0.2 for the first, ≤ 0.2 for the second.

EAHT and VLPK cannot be ordered by “one-hybrid fitness for binding NBS DNA” value: ≤ 0.2 for the first, ≤ 0.2 for the second.

LWNE and RCQM cannot be ordered by “one-hybrid fitness for binding NBS DNA” value: ≤ 0.2 for the first, ≤ 0.2 for the second.

KLLS and SKGD cannot be ordered by “one-hybrid fitness for binding NBS DNA” value: ≤ 0.2 for the first, ≤ 0.2 for the second.

KVKG and QAQW cannot be ordered by “one-hybrid fitness for binding NBS DNA” value: ≤ 0.2 for the first, ≤ 0.2 for the second.

First: RKHY
Second: MAVC
The “one-hybrid fitness for binding NBS DNA” value of the first is higher: 0.278 for the first, ≤ 0.2 for the second.

EQLF and PSKP cannot be ordered by “one-hybrid fitness for binding NBS DNA” value: ≤ 0.2 for the first, ≤ 0.2 for the second.

LSVT and YTAM cannot be ordered by “one-hybrid fitness for binding NBS DNA” value: ≤ 0.2 for the first, ≤ 0.2 for the second.

AGLM and ADCV cannot be ordered by “one-hybrid fitness for binding NBS DNA” value: ≤ 0.2 for the first, ≤ 0.2 for the second.

KWTC and MSRW cannot be ordered by “one-hybrid fitness for binding NBS DNA” value: ≤ 0.2 for the first, ≤ 0.2 for the second.

PDSN and FIWV cannot be ordered by “one-hybrid fitness for binding NBS DNA” value: ≤ 0.2 for the first, ≤ 0.2 for the second.

PAIK and RWFV cannot be ordered by “one-hybrid fitness for binding NBS DNA” value: ≤ 0.2 for the first, ≤ 0.2 for the second.

QWGC and MNHC cannot be ordered by “one-hybrid fitness for binding NBS DNA” value: ≤ 0.2 for the first, ≤ 0.2 for the second.

ICDG and LQAE cannot be ordered by “one-hybrid fitness for binding NBS DNA” value: ≤ 0.2 for the first, ≤ 0.2 for the second.

LSRN and WVPS cannot be ordered by “one-hybrid fitness for binding NBS DNA” value: ≤ 0.2 for the first, ≤ 0.2 for the second.
